# About 520 (0.27%) of roughly 190,000 compounds were called active. Inconclusive results, whose numbers are uncertain, are shown with a selection of clear calls.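 Rule for the calls: active = GTP binding activity at least 20 points away from the 100% control level, either lower or higher; inconclusive = compound flagged as likely green fluorescent, judged across all proteins; inactive = the rest.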
# Target: Ras-related C3 botulinum toxin substrate 1 (Homo sapiens) (UniProt P63000)
# Assay: wildtype Rac1 GTP binding modulators, primary screen, biochemical, GST-Rac1 beads, flow cytometry, multiplex (AID 757)
# Conditions: fluorescent GTP binding, at 10 µM, actives lie on both sides, 0 = cold GTP competed, 100 = untreated
row,Compound,GTP binding activity (% of control)
1,CCN1C(=O)/C(=C\c2ccc(-c3ccc([N+](=O)[O-])cc3OC)o2)SC1=Nc1cccc(C(=O)O)c1,inconclusive: 93%
2,CCCCN(CCCC)c1nc(OC)nc(-n2nnc(C(C)=O)c2C)n1,inconclusive: 97%
3,Cc1ccc(OCCC(=O)Nc2ccc(F)c(Cl)c2)cc1,inconclusive: 97%
4,C=CCN(CC=C)CC(O)CN(c1cc([N+](=O)[O-])ccc1OC)S(=O)(=O)c1ccccc1 (configuration not stated),inactive: 106%
5,Cc1cc(C)nc(/N=C(\N)Nc2ccccc2-c2ccccc2)n1,inconclusive: 100%
6,COc1ccc(S(=O)(=O)N2CCOCC2)cc1NC(=O)CSc1nnc(C2CC2)n1N,inactive: 99%
7,O=C(NCc1ccco1)C(=O)NCC(c1ccco1)N1CCOCC1 (configuration not stated),inactive: 95%
8,NC(=O)c1cc2nc(-c3ccco3)cc(C(F)(F)F)n2n1,active: 68%
9,CCn1c(=O)[nH]c2cc(C(=O)Nc3cc(C)cc(C)c3)ccc2c1=O,inactive: 99%
10,O=c1c2ccccc2nc2c3ccccc3c(NCc3cccnc3)nn12,active: 69%
11,O=c1c2c(-c3ccccc3)csc2nc2n1CCC2,inconclusive: 86%
12,O=S(=O)(Nc1cccc(-c2cn3ccsc3n2)c1)c1ccc(F)cc1,inconclusive: 96%
13,CCN(CC)CCOC(=O)c1c(C)n(C)c2ccc(OC)cc12,inconclusive: 102%
14,O=C(N/N=C/c1coc2ccccc2c1=O)c1cccc([N+](=O)[O-])c1,inconclusive: 92%
15,Cc1ccc(/C=C2/SC(=O)NC2=S)o1,inactive: 95%
16,CC(OC(=O)C1CC1)C(=O)Nc1cc(C(F)(F)F)ccc1Cl (configuration not stated),inactive: 100%
17,Cc1cccc(C)c1NC(=O)C(c1ccc([N+](=O)[O-])cc1)N(C)C(=O)c1ccccn1 (configuration not stated),inactive: 103%
18,Cn1cc(C=C2C(=O)CC(C)(C)CC2=O)c2ccccc21,active: 33%
19,CC(=O)Oc1c(-c2ccco2)oc2ccccc2c1=O,inactive: 91%
20,COc1ccccc1C(=O)Nc1nc(-c2ccc3c(c2)OCCO3)cs1,active: 78%
21,COc1cc(N=Nc2c(C)n(C)n(-c3ccccc3)c2=O)ccc1N,inactive: 109%
22,Cc1ccc(CN2CCN(Cc3cccn3-c3nccs3)CC2CCO)cc1 (configuration not stated),inactive: 102%
23,O=C(c1cccs1)n1nc(-c2ccccc2)nc1NCc1ccco1,inconclusive: 101%

row,Compound,GTP binding activity (% of control)
1,COC(=O)CCNS(=O)(=O)c1ccc2ccccc2c1,inconclusive: 102%
2,COc1ccc(C(=O)Nc2cccc(-c3cc4ccccc4oc3=O)c2)cc1[N+](=O)[O-],inactive: 109%
3,COc1cccc(OCCOCCN(C)CCO)c1,inconclusive: 107%
4,O=[N+]([O-])c1ccc2nc(-c3ccc(Cl)cc3)n(OCc3ccccc3)c2c1,inconclusive: 101%
5,O=S(=O)(c1ccc2nc(SCc3cccc(Cl)c3)[nH]c2c1)N1CCOCC1,inconclusive: 102%
6,N#Cc1c(Cl)nc(SCc2ccccc2)nc1-c1ccccc1,inactive: 102%
7,O=C(NCc1cc(Br)cc(Br)c1OC(=O)c1ccccc1[N+](=O)[O-])c1ccccc1,inactive: 100%
8,CCCN(c1nc(C)cc(OC)n1)S(=O)(=O)c1ccccc1,inconclusive: 93%
9,N#CCc1nn(-c2ccc(F)cc2)c(N)c1C#N,inconclusive: 87%
10,O=C(Nc1ccc(Br)cc1)c1csc(-c2ccncc2)n1,inconclusive: 92%
11,CN(C)c1ccc(/C=N/NC(N)=S)cc1[N+](=O)[O-],inactive: 95%
12,CC(C)c1cc(NCc2ccccn2)n2c(nc3ccccc32)c1C#N,inconclusive: 72%
13,Cc1nonc1OCCn1c([N+](=O)[O-])cnc1C,inactive: 98%
14,Clc1ccc(Cn2ncc3c(N4CCCC4)ncnc32)cc1,inactive: 100%
15,CCC(CC)C1=NN2C(=N)/C(=C\c3cc(C)n(-c4cccc(C)c4)c3C)C(=O)N=C2S1,inconclusive: 79%
16,CSc1nc2ccc(NC(=O)c3cc4ccccc4o3)cc2s1,inactive: 97%
17,Fc1ccc(OCc2nn3c(Cn4nnc5ccccc54)nnc3s2)cc1,inconclusive: 93%
18,CCC(Sc1nc(-c2ccccc2)cc(=O)[nH]1)C(=O)O (configuration not stated),inactive: 96%
19,CCOC(=O)C1=NN(c2ccccc2)C(=O)/C1=C\c1ccc(N(C)C)cc1,inconclusive: 89%
20,Cc1ccc(C(=O)N/N=C/c2cc(C)n(-c3ccc(Br)cc3)c2C)cc1[N+](=O)[O-],inconclusive: 105%
21,O=C(NCCCCNC(=O)c1ccc(Cl)s1)c1ccc(Cl)s1,inconclusive: 106%
22,CCCCn1c(CNC(C)=O)nc2ccccc21,inconclusive: 102%
23,CCOC(=O)c1cc(C(=O)OCC)c(=O)[nH]c1N1CCCC1,active: 51%

row,Compound,GTP binding activity (% of control)
1,CC(=O)Nc1ccc(-c2nnn(CC(=O)Nc3ccc4c(c3)OCO4)n2)cc1Cl,inactive: 96%
2,COc1ccc(Cn2c(=O)[nH]c3cc(C(=O)NC4CCN(Cc5ccccc5)CC4)ccc32)cc1,inconclusive: 92%
3,CCN(CC)C(=O)CS(=O)CC(=O)Nc1cc(OCCOC)c(Cl)cc1Cl (configuration not stated),inactive: 103%
4,O=C(COc1ncnc2cc([N+](=O)[O-])ccc12)NCCc1ccc(Cl)cc1,active: 77%
5,COc1ccc(C(=O)C2CCCN(Cc3c[nH]c4ccccc34)C2)c(OC)c1 (configuration not stated),inactive: 99%
6,Cc1ccc(-c2nnn(CC(=O)N(c3ccc4c(c3)OCCO4)C(C(=O)NCC3CCCO3)c3ccc(F)cc3)n2)o1 (configuration not stated),inconclusive: 95%
7,CCOc1ccc(NC(=O)CC2C(=O)Nc3ccccc3N2C(=O)c2ccccc2)cc1 (configuration not stated),inconclusive: 100%
8,c1ccc(CN(Cc2ccccc2)c2nn[nH]n2)cc1,inactive: 94%
9,CCOC(=O)/C(N=Nc1ccc2c(c1)OCO2)=C(\C)O,inactive: 93%
10,COc1ccc(CCNC(=O)CSc2ccsc2[N+](=O)[O-])c(OC)c1,inconclusive: 90%
11,COc1ccc(-c2csc3ncn(-c4ccc(C)cc4)c(=O)c23)cc1OC,inconclusive: 93%
12,CCN(CC)C(=O)COc1ccc(S(=O)(=O)N2CCOCC2)cc1,inconclusive: 107%
13,COc1ccc(NC(=O)Cn2c(=O)n(-c3ccc(OC)cc3OC)c(=O)c3c(C)c(C)sc32)cc1,inactive: 100%
14,Cc1cc(NC(=O)Nc2cccc(C)c2C)no1,inactive: 100%
15,CCOc1ccc(C(=O)N2CCN(c3cccc(C)c3C)CC2)cc1,inconclusive: 86%
16,O=c1cnnc(N/N=C/c2c[nH]c3ccccc23)[nH]1,inconclusive: 93%
17,O=C1CN(C(=O)COc2ccc(Br)cc2Br)c2ccccc2N1,inactive: 96%
18,CC1CC(C)(C)NC(=S)N1CC(=O)NCc1ccc(Cl)cc1 (configuration not stated),inconclusive: 104%
19,O=C(Nc1cccc(-c2nc3ncccc3o2)c1)c1sc2ccccc2c1Cl,inconclusive: 79%
20,Brc1ccc(CSc2nnc(-c3ccccn3)n2Cc2ccco2)cc1,inconclusive: 99%
21,COc1ccc(CNc2nc3ccccc3n2Cc2ccc(C)cc2)cc1OC,active: 142% [activator]
22,Cc1ccc2nc(CSc3nc(C)cc(C)c3C#N)[nH]c2c1,active: 122% [activator]
23,CCCCN(C(=O)NC(=O)Nc1nc2ccc(OC)cc2s1)S(C)(=O)=O,inconclusive: 86%

row,Compound,GTP binding activity (% of control)
1,O=C(c1ccccc1Sc1ccccc1[N+](=O)[O-])N1CCCCC1,inactive: 96%
2,O=P(O)(O)c1ccccc1OCCOCCOCCOCCOc1ccccc1P(=O)(O)O,inactive: 101%
3,CCOc1ccccc1NC(=O)C(NCC1(N2CCCCC2)CCCCC1)c1ccccc1 (configuration not stated),inactive: 96%
4,CS(=O)(=O)c1ccc(C(=O)OCC(=O)NC(=O)C2CCCCC2)cc1[N+](=O)[O-],inactive: 89%
5,C=C(C(=O)c1ccccc1)C(C)C(=C)C(=O)c1ccccc1,inactive: 96%
6,COc1ccc(C(=O)Nc2cc(Cl)ccc2Cl)c(OC)n1,inconclusive: 107%
7,CCCSc1nc(O)c(C(c2ccc(OC)c(O)c2)c2c(O)nc(SCCC)n(C)c2=O)c(=O)n1C,inconclusive: 85%
8,Cc1cccc(C(=O)NCC(=O)N2CC(=O)Nc3ccccc32)c1,inactive: 101%
9,CC(C)(C)NC(=O)c1ccc2nsnc2c1,inconclusive: 353%
10,O=C1CN(C(=O)/C=C/c2cccc(Cl)c2)c2ccccc2N1,inconclusive: 83%
11,O=C(O)CCCN1C(=O)/C(=C\c2ccco2)SC1=S,inactive: 95%
12,CCN(C(=O)Cc1c(C(=O)O)[nH]c2ccccc12)c1ccc(OC)cc1,inconclusive: 95%
13,CCOC(=O)Nc1sc(C)c(C)c1C(N)=O,inactive: 104%
14,CC(C)c1[nH]nc2c1C(Cc1ccccc1)C(C#N)=C(N)O2 (configuration not stated),inconclusive: 97%
15,CN1CCN(CC(=O)N2c3ccccc3C(C)(c3ccccc3)CC2(C)C)CC1 (configuration not stated),inconclusive: 107%
16,COc1cc(/C=C(\C#N)c2[nH]nc(N)c2C#N)cc(OC)c1O,inconclusive: 95%
17,CN(c1cccc(NC(=O)CN(c2ccc(C34CC5CC(CC(C5)C3)C4)cc2)S(C)(=O)=O)c1)S(C)(=O)=O,inactive: 102%
18,COc1ccc(OC)c(/C=C/C(=O)OCC(=O)Nc2ccc3c(c2)OCCO3)c1,inconclusive: 92%
19,COC(=O)c1ccc(CN2C(=O)C3CCCCC3C2=O)o1 (configuration not stated),inactive: 104%
20,O=C(O)CCC(=O)N1CCc2cc(S(=O)(=O)N3CCCCC3)ccc21,inconclusive: 102%
21,Cc1sc2nc3ccc(NCc4ccco4)nn3c(=O)c2c1C,active: 22%
22,CCOC(=O)c1sc2nccc(N(C)C)c2c1N=CN(C)C,inconclusive: 106%
23,CCn1c(=O)c(C(=O)NNS(=O)(=O)c2ccc(Br)cc2)c(O)c2ccccc21,inconclusive: 94%
